# Source: patent US11618753B2 (priority 2018, dated 2023)
# Test system: MLKL phosphorylation, HT29-L23 human colorectal adenocarcinoma cells
# Assay: cells
# Settings: read-out: pMLKL HCS Cell Assay (IC50, uM)
row,Structure (SMILES),IC50
1,"Cc1ccc(-c2cc(CN3CCC(F)(F)CC3)c3c(N)ncnn23)cc1C(=O)N[C@@H]1CN(C(=O)OCC(F)(F)F)C[C@@H]1F [Example 1575, 2,2,2-trifluoroethyl (3R,4S)-3-(5-{4-amino-5-[(4,4-difluoropiperidin-1-yl)methyl]pyrrolo[2,1-f][1,2,4]triazin-7-yl}-2-methylbenzamido)-4-fluoropyrrolidine-1-carboxylate]",0.00055 µM
2,"Nc1ncnn2c(-c3ccc(OC(F)F)c(C(=O)N[C@@H]4CN(C(=O)c5ccccc5F)C[C@@H]4F)c3)cc(C(F)(F)F)c12 [Example 1089, 5-[4-amino-5-(trifluoromethyl)pyrrolo[2,1-f][1,2,4]triazin-7-yl]-2-(difluoromethoxy)-N-[(3R,4S)-4-fluoro-1-(2-fluorobenzoyl)pyrrolidin-3-yl]benzamide]",0.044 µM
3,"Nc1ncnn2c(-c3cc(C(=O)N[C@@H]4CN(C(=O)C5CC(F)C5)C[C@@H]4F)c(Cl)cc3F)cc(C(F)(F)F)c12 (stereo partly drawn) [Example 409, 5-[4-amino-5-(trifluoromethyl)pyrrolo[2,1-f][1,2,4]triazin-7-yl]-2-chloro-4-fluoro-N-[(3R,4S)-4-fluoro-1-(3-fluorocyclobutane-carbonyl)pyrrolidin-3-yl] benzamide]",0.0092 µM
4,"COc1cc(C(=O)N[C@@H]2CN(C(=O)C3CCC(F)(F)C3)C[C@@H]2F)cc(-c2cc(C(F)(F)F)c3c(N)ncnn23)c1 (stereo partly drawn) [Example 587, 3-[4-amino-5-(trifluoromethyl)pyrrolo[2,1-f][1,2,4]triazin-7-yl]-N-[(3R,4S)-1-(3,3-difluorocyclopentanecarbonyl)-4-fluoropyrrolidin-3-yl]-5-methoxybenzamide]",0.022 µM
5,"CC(C(=O)N1C[C@H](F)[C@H](NC(=O)c2cc(-c3cc(C(F)(F)F)c4c(N)ncnn34)cc(F)c2CF)C1)C(F)(F)F (stereo partly drawn) [Example 627, 5-[4-amino-5-(trifluoromethyl)pyrrolo[2,1-f][1,2,4]triazin-7-yl]-3-fluoro-N-[(3R,4S)-4-fluoro-1-(3,3,3-trifluoro-2-methylpropanoyl)pyrrolidin-3-yl]-2-(fluoromethyl)benzamide]",0.0036 µM
6,"COc1ncc(-c2c(F)cc3c(N)ncnn23)cc1C(=O)N[C@@H]1CN(C(=O)C2CCC(F)(F)C2)C[C@@H]1F (stereo partly drawn) [Example 511, 5-{4-amino-6-fluoropyrrolo[2,1-f][1,2,4]triazin-7-yl}-N-[(3R,4S)-1-(3,3-difluorocyclopentanecarbonyl)-4-fluoropyrrolidin-3-yl]-2-methoxypyridine-3-carboxamide]",0.041 µM
7,"COc1ncc(-c2cc(C(F)(F)F)c3c(N)ncnn23)cc1C(=O)NC1CN(C(=O)C2CC(F)C2)C[C@@H]1F (single isomer, unassigned) [Example 348, 5-(4-amino-5-(trifluoromethyl)pyrrolo[2,1-f][1,2,4]triazin-7-yl)-N-(4-fluoro-1-(3-fluorocyclo-butane-1-carbonyl)pyrrolidin-3-yl)-2-methoxynicotinamide]",0.0064 µM
8,"Nc1ncnn2c(-c3ccc(OC(F)(F)F)c(C(=O)N[C@@H]4CN(C(=O)c5ccccc5F)C[C@@H]4F)c3)cc(C(F)(F)F)c12 [Example 1046, 5-[4-amino-5-(trifluoromethyl)pyrrolo[2,1-f][1,2,4]triazin-7-yl]-N-[(3R,4S)-4-fluoro-1-(2-fluorobenzoyl)pyrrolidin-3-yl]-2-(trifluoromethoxy)benzamide]",0.223 µM
9,"C[C@@](O)(C(=O)N1C[C@H](F)[C@H](NC(=O)c2cc(-c3cc(C(F)(F)F)c4c(N)ncnn34)ccc2Cl)C1)C(F)(F)F [Example 935, 5-[4-amino-5-(trifluoromethyl)pyrrolo[2,1-f][1,2,4]triazin-7-yl]-2-chloro-N-[(3R,4S)-4-fluoro-1-[(2R)-3,3,3-trifluoro-2-hydroxy-2-methylpropanoyl]pyrrolidin-3-yl]benzamide]",0.002 µM
10,"Cc1ccc(-c2cc(C(F)(F)F)c3c(N)ncnn23)cc1C(=O)N[C@@H]1CN(C(=O)c2ccncc2Cl)C[C@@H]1F [Example 1038, 5-[4-amino-5-(trifluoromethyl)pyrrolo[2,1-f][1,2,4]triazin-7-yl]-N-[(3R,4S)-1-(3-chloropyridine-4-carbonyl)-4-fluoropyrrolidin-3-yl]-2-methylbenzamide]",0.0062 µM
11,"CC(C)(F)C(=O)N1C[C@H](F)[C@H](NC(=O)c2cc(-c3cc(C(F)(F)F)c4c(N)ncnn34)ccc2OCC(F)(F)F)C1 [Example 1063, 5-[4-amino-5-(trifluoromethyl)pyrrolo[2,1-f][1,2,4]triazin-7-yl]-N-[(3R,4S)-4-fluoro-1-(2-fluoro-2-methylpropanoyl)pyrrolidin-3-trifluoroethoxy)benzamide]",0.414 µM
12,"[2H]C([2H])([2H])Oc1ncc(-c2cc(C(F)(F)F)c3c(N)ncnn23)cc1C(=O)N[C@@H]1CN(C(=O)C2CC(F)(F)C2)C[C@@H]1F [Example 390, 5-(4-amino-5-(trifluoromethyl)pyrrolo [2,1-f][1,2,4]triazin-7-yl)-N-((3R,4S)-1-(3,3-difluorocyclobutane-1-carbonyl)-4-fluoropyrrolidin-3-yl)-2-(methoxy-d3) nicotinamide]",0.011 µM
13,"CCc1c(F)cc(-c2cc(C(F)(F)F)c3c(N)ncnn23)cc1C(=O)N[C@@H]1CN(C(=O)CC(O)(C(F)(F)F)C(F)(F)F)C[C@@H]1F [Example 567, 5-(4-amino-5-(trifluoromethyl)pyrrolo[2,1-f][1,2,4]triazin-7-yl)-2-ethyl-3-fluoro-N-((3R,4S)-4-fluoro-1-(4,4,4-trifluoro-3-hydroxy-3-(trifluoromethyl)butanoyl)pyrrolidin-3-yl)benzamide]",0.015 µM
14,"COc1ncc(-c2cc(CN3CCC3)c3c(N)ncnn23)cc1C(=O)N[C@@H]1CN(C(=O)c2ccccc2F)C[C@@H]1F [Example 1615, 5-{4-amino-5-[(azetidin-1-yl)methyl]pyrrolo[2,1-f][1,2,4]triazin-7-yl}-N-[(3R,4S)-4-fluoro-1-(2-fluorobenzoyl)pyrrolidin-3-yl]-2-methoxypyridine-3-carboxamide]",0.0055 µM
15,"COc1ncc(-c2cc(C(F)(F)F)c3c(N)ncnn23)cc1C(=O)NC1CN(Cc2ccc(F)c(F)c2)CC1F (racemic) [Example 211, 5-[4-amino-5-(trifluoromethyl)pyrrolo[2,1-f][1,2,4]triazin-7-yl]-N-{1-[(3,4-difluorophenyl)methyl]-4-fluoropyrrolidin-3-yl}-2-methoxypyridine-3-carboxamide]",0.0062 µM
16,"COc1ncc(-c2cc(CN3CC(F)(F)C3)c3c(N)ncnn23)cc1C(=O)N[C@@H]1CN(C(=O)C2CC2(F)F)C[C@@H]1F (stereo partly drawn) [Example 1617, 5-{4-amino-5-[(3,3-difluoroazetidin-1-yl)methyl]pyrrolo[2,1-f][1,2,4]triazin-7-yl}-N-[(3R,4S)-1-(2,2-difluorocyclopropanecarbonyl)-4-fluoropyrrolidin-3-yl]-2-methoxypyridine-3-carboxamide]",0.0011 µM
17,"COc1ncc(-c2cc(C(F)(F)F)c3c(N)ncnn23)cc1C(=O)N[C@@H]1CN(C2CCCc3ccccc32)C[C@@H]1F (mixture of isomers) [Example 1361, 5-[4-amino-5-(trifluoromethyl)-pyrrolo[2,1-f][1,2,4]triazin-7-yl]-N-[(3R,4S)-4-fluoro-1-(1,2,3,4-tetrahydro-naphthalen-1-yl)pyrrolidin-3-yl]-2-methoxypyridine-3-carboxamide]",0.03 µM
18,"Nc1ncnn2c(-c3ccc(Cl)c(C(=O)N[C@@H]4CN(C(=O)c5ccccc5F)C[C@@H]4F)c3)cc(C(F)(F)F)c12 [Example 932, 5-[4-amino-5-(trifluoromethyl)pyrrolo[2,1-f][1,2,4]triazin-7-yl]-2-chloro-N-[(3R,4S)-4-fluoro-1-(2-fluorobenzoyl)pyrrolidin-3-yl]benzamide]",0.007 µM
19,"Nc1ncnn2c(-c3ccc(Cl)c(C(=O)N[C@@H]4CN(C(=O)C5CC(F)(F)C5)C[C@@H]4F)c3)cc(C(F)(F)F)c12 [Example 942, 5-[4-amino-5-(trifluoromethyl)pyrrolo[2,1-f][1,2,4]triazin-7-yl]-2-chloro-N-[(3R,4S)-1-(3,3-difluorocyclobutanecarbonyl)-4-fluoropyrrolidin-3-yl]benzamide]",0.005 µM
20,"Nc1ncnn2c(-c3cccc(C(=O)N[C@@H]4CN(C(=O)c5ccc(F)c(F)c5)C[C@@H]4F)c3)cc(C(F)(F)F)c12 [Example 86, 3-[4-amino-5-(trifluoromethyl)pyrrolo[2,1-f][1,2,4]triazin-7-yl]-N-[(3R,4S)-1-(3,4-difluorobenzoyl)-4-fluoropyrrolidin-3-yl]benzamide]",0.033 µM
21,"Cc1cc(F)c(-c2cc(C(F)(F)F)c3c(N)ncnn23)cc1C(=O)N[C@@H]1CN(C(=O)c2ccncc2Cl)C[C@@H]1F [Example 838, 5-[4-amino-5-(trifluoromethyl)pyrrolo[2,1-f][1,2,4]triazin-7-yl]-N-[(3R,4S)-1-(3-chloropyridine-4-carbonyl)-4-fluoropyrrolidin-3-yl]-4-fluoro-2-methylbenzamide]",0.017 µM
22,"COc1ncc(-c2cc(C(F)(F)F)c3c(N)ncnn23)cc1C(=O)NCCC(O)c1ccc(F)cc1 (single isomer, unassigned) [Example 126, 5-[4-amino-5-(trifluoromethyl)pyrrolo[2,1-f][1,2,4]triazin-7-yl]-2-methoxy-N-[(2-phenyloxan-3-yl)methyl]pyridine-3-carboxamide]",0.016 µM
23,"COc1ncc(-c2cc(C(F)(F)F)c3c(NC(=O)C(C)(C)F)ncnn23)cc1C(=O)N[C@@H]1CN(C(=O)[C@@](C)(O)C(F)(F)F)C[C@@H]1F [Example 1343, N-[(3R,4S)-4-fluoro-1-[(2R)-3,3,3-trifluoro-2-hydroxy-2-methylpropanoyl]pyrrolidin-3-yl]-5-[4-(2-fluoro-2-methylpropanamido)-5-(trifluoromethyl)pyrrolo[2,1-f][1,2,4]triazin-7-yl]-2-methoxypyridine-3-carboxamide]",0.00087 µM
24,"COc1ncc(-c2cc(CN3CCC(F)(F)CC3)c3c(N)ncnn23)cc1C(=O)N[C@@H]1CN(S(=O)(=O)CC(F)(F)F)C[C@@H]1F [Example 1542, 5-{4-amino-5-[(4,4-difluoropiperidin-1-yl)methyl]pyrrolo[2,1-f][1,2,4]triazin-7-yl}-N-[(3R,4S)-4-fluoro-1-(2,2,2-trifluoroethanesulfonyl)pyrrolidin-3-yl]-2-methoxypyridine-3-carboxamide]",0.0025 µM
